Our source for the IC50 values is patent US9126931B2 (priority 2009, dated 2015).

The assay concerns Human lymphoma cell line KARPAS-299. The assay can be described thus: cells. Particulars: KARPAS-299, 96 h, read-out: Inhibitory activity on Karpas-299 cell growth IC50.
For `CCc1cc2c(cc1N1CCC(O)(C#N)CC1)C(C)(C)c1[nH]c3cc(C#N)ccc3c1C2=O` [PR11-20, 8-(4-Cyano-4-hydroxy-piperidine-1-yl)-9-ethyl-6,6-dimethyl-11-oxo-6,11-dihydro-5H-benzo[b]carbazole-3-carbonitrile], the IC50 was 20.3 nM.
Then `CN1CCC(Oc2cc3c(cc2NS(=O)(=O)N(C)C)C(=O)c2c([nH]c4cc(C#N)ccc24)C3(C)C)CC1` [Compound D3-2, 3-Cyano-6,6-dimethyl-11-oxo-8-(1-methylpiperidin-4-yloxy)-6,11-dihydro-5H-benzo[b]carbazole-9-sulfonic acid dimethylamide], with 970 nM; and `N#Cc1ccc2c3c([nH]c2c1)C1(CCOCC1)c1cc(OCCCN2CCOCC2)ccc1C3=O` [Compound N6-4, 8-(3-Morpholinopropoxy)-11-oxo-2′,3′,5,5′,6′,11-hexahydrospiro[benzo[b]carbazole-6,4′-pyran]-3-carbonitrile], with 122 nM; and `CC1(C)c2cc(N3CCN(C4CC4)CC3)c(-c3cccs3)cc2C(=O)c2c1[nH]c1cc(C#N)ccc21` [Compound F5-41, 8-(4-Cyclopropyl-piperazin-1-yl)-6,6-dimethyl-11-oxo-9-thiophene-2-yl-6,11-dihydro-5H-benzo[b]carbazole-3-carbonitrile], with 149 nM.
As for `CC1(C)c2cc(OCC(=O)N3CCN(S(C)(=O)=O)CC3)ccc2C(=O)c2c1[nH]c1cc(Br)ccc21` [Compound T13-6, 3-Bromo-8-[2-(4-methanesulfonyl-piperazin-1-yl)-2-oxo-ethoxy]-6,6-dimethyl-5,6-dihydro-benzo[b]carbazol-11-one], the figure is 1290 nM; as for `CCN(CC)CCOc1ccc2c(c1)C(C)(C)c1[nH]c3cc(N(C)C(=O)COc4ccccc4)ccc3c1C2=O` [GT5-18, N-[8-(2-Diethylamino-ethoxy)-6,6-dimethyl-11-oxo-6,11-dihydro-5H-benzo[b]carbazol-3-yl]-N methyl-2-phenoxy-acetamide], 4260 nM.
Then `CC1(C)c2ccc(OC3CCN(C4COC4)CC3)cc2C(=O)c2c1[nH]c1cc(C#N)ccc21` [Compound J7-2-3, 6,6-Dimethyl-9-(1-oxetan-3-yl-piperidin-4-yloxy)-11-oxo-6,11-dihydro-5H-benzo[b]carbazole-3-carbonitrile], with 29.5 nM; and `COCC#Cc1cc2c(cc1N1CCOCC1)C(C)(C)c1[nH]c3cc(C#N)ccc3c1C2=O` [Compound F5-9, 9-(3-Methoxy-prop-1-ynyl)-6,6-dimethyl-8-morpholin-4-yl-11-oxo-6,11-dihydro-5H-benzo[b]carbazole-3-carbonitrile], with 4.3 nM; and `CCN(CC)CCOc1ccc2c(n1)C(C)(C)c1[nH]c3cc(C#N)ccc3c1C2=O` [EZ9-3, 2-(2-Diethylamino-ethoxy)-11,11-dimethyl-5-oxo-10,11-dihydro-5H-pyrido[2,3-b]carbazole-8-carbonitrile], with 56.9 nM.
As for `CC1(C)c2cc(OCCNC(=O)C(F)(F)F)ccc2C(=O)c2c1[nH]c1cc(C#N)ccc21` [Compound A9-2, N-[2-(3-Cyano-6,6-dimethyl-11-oxo-6,11-dihydro-5H-benzo[b]carbazol-8-yloxy)-ethyl]-2,2,2-trifluoro-acetamide], the IC50 was 137 nM.
As to `COCCOc1ccc2c3c(oc2c1)C(C)(C)c1cc(OC[C@@H](O)[C@H](O)CO)ccc1C3=O` [GT13-16, 3-(2-Methoxy-ethoxy)-6,6-dimethyl-8-((2R,3R)-2,3,4-trihydroxy-butoxy)-6H-benzo[b]naphtho[2,3-d]furan-11-one], the IC50 amounted to 7880 nM.
Take `CC1(C)c2cc(OC3CCNCC3)ccc2C(=O)c2c1[nH]c1ccc(N)cc21` [Compound P5, 2-Amino-6,6-dimethyl-8-(piperidin-4-yloxy)-5,6-dihydro-benzo[b]carbazol-11-one]: the IC50 is 27800 nM.
As for `CC1(C)c2cc(N3CCN(S(C)(=O)=O)CC3)c(Br)cc2C(=O)c2c1[nH]c1cc(C#N)ccc21` [Compound F3-3, 9-Bromo-8-(4-methanesulfonyl-piperazin-1-yl)-6,6-dimethyl-11-oxo-6,11-dihydro-5H-benzo[b]carbazole-3-carbonitrile], the figure is 16.2 nM; as for `CC1(C)c2cc(OC[C@H](O)CO)ccc2C(=O)c2c1[nH]c1c(C#N)c(C#N)ccc21` [Compound U8-3-2, 8-((R)-2,3-Dihydroxy-propoxy)-6,6-dimethyl-11-oxo-6,11-dihydro-5H-benzo[b]carbazole-3,4-dicarbonitrile], 677 nM; as for `CC(C)(C)N1CCN(c2cc3c(cc2Br)C(=O)c2c([nH]c4cc(C#N)ccc24)C32CCOCC2)CC1` [Compound O8-5, 9-Bromo-8-(4-tert-butylpiperazin-1-yl)-11-oxo-2′,3′,5,5′,6′,11-hexahydrospiro[benzo[b]carbazole-6,4′-pyran]-3-carbonitrile], 30 nM.
Then `CCc1cc2c(cc1N1CCC(NC3CC3)CC1)C(C)(C)c1[nH]c3cc(C#N)ccc3c1C2=O` [PR11-17, 8-(4-Cyclopropylamino-piperidine-1-yl)-9-ethyl-6,6-dimethyl-11-oxo-6,11-dihydro-5H-benzo[b]carbazole-3-carbonitrile], with 5.77 nM; and `CC1(C)c2cc(OCc3ccncc3)ccc2C(=O)c2c1[nH]c1cc(C#N)ccc21` [Compound A7-7, 6,6-Dimethyl-11-oxo-8-(pyridin-4-ylmethoxy)-6,11-dihydro-5H-benzo[b]carbazole-3-carbonitrile], with 329 nM.
On to `CC1(C)c2cc(N3CCN(C4CC4)CC3)c(-c3cccnc3)cc2C(=O)c2c1[nH]c1cc(C#N)ccc21` [Compound F5-40, 8-(4-Cyclopropyl-piperazin-1-yl)-6,6-dimethyl-11-oxo-9-pyridin-3-yl-6,11-dihydro-5H-benzo[b]carbazole-3-carbonitrile], for which the IC50 was found to be 25.6 nM.
On to `CC1(C)c2cc(N3CCN(C4COC4)CC3)c(C#CC3CCCC3)cc2C(=O)c2c1[nH]c1cc(C#N)ccc21` [Compound F5-21, 9-Cyclopentylethynyl-6,6-dimethyl-8-(4-oxetan-3-ylpiperazin-1-yl)-11-oxo-6,11-dihydro-5H-benzo[b]carbazole-3-carbonitrile], for which the IC50 turned out to be 66.3 nM.
As for `COCCOCCOc1ccc2c(c1)C(C)(C)c1[nH]c3cc(C#N)ccc3c1C2=O` [Compound A7-9, 8-[2-(2-Methoxyethoxy)ethoxy]-6,6-dimethyl-11-oxo-6,11-dihydro-5H-benzo[b]carbazole-3-carbonitrile], the figure is 204 nM; as for `CC1(C)c2cc(OCC3CCN(C4CN(S(C)(=O)=O)C4)CC3)ccc2C(=O)c2c1[nH]c1cc(Br)ccc21` [Compound T14-9, 3-Bromo-8-[1-(1-methanesulfonyl-azetidin-3-yl)-piperidin-4-ylmethoxy]-6,6-dimethyl-5,6-dihydro-benzo[b]carbazol-11-one], 1080 nM; as for `CCc1cc2c(cc1N1CCN(C3CCC3)CC1)C(C)(C)c1[nH]c3nc(C#N)ccc3c1C2=O` [DZ7-1, 8-(4-Cyclobutyl-piperazine-1-yl)-7-ethyl-10,10-dimethyl-5-oxo-10,11-dihydro-5H-1,11-diaza-benzo[b]fluorene-2-carbonitrile], 357 nM.
As for `COc1ccc(COc2ccc3c(c2)C(=O)c2c([nH]c4cc(Br)ccc24)C3(C)C)cc1` [JJ10-3, 3-Bromo-9-(4-methoxy-benzyloxy)-6,6-dimethyl-5,6-dihydro-benzo[b]carbazol-11-one], the IC50 turned out to be 6060 nM.
Turning to `CCN(CC)CCOc1ccc2c(c1)C(C)(C)c1[nH]c3cc(NC(=O)Oc4cccc(C(F)(F)F)c4)ccc3c1C2=O` [GT5-12, [8-(2-Diethylamino-ethoxy)-6,6-dimethyl-11-oxo-6,11-dihydro-5H-benzo[b]carbazol-3-yl]-carbamic acid 3-trifluoromethyl-phenyl ester], the IC50 was found to be 20000 nM.
As for `CC1(C)c2cc(OCCS(C)(=O)=O)ccc2C(=O)c2c1[nH]c1cc(C#N)ccc21` [Compound A8-3, 8-(2-Methanesulfonyl-ethoxy)-6,6-dimethyl-11-oxo-6,11-dihydro-5H-benzo[b]carbazole-3-carbonitrile], the figure is 86.6 nM; as for `COc1c(C#N)ccc2c3c([nH]c12)C(C)(C)c1cc(OC[C@H](O)CO)ccc1C3=O` [Compound U8-4-3, 8-((R)-2,3-Dihydroxy-propoxy)-4-methoxy-6,6-dimethyl-11-oxo-6,11-dihydro-5H-benzo[b]carbazole-3-carbonitrile], 1100 nM; as for `CCN1CCN(CCOc2ccc3c(c2)C(C)(C)c2[nH]c4cc(C#N)ccc4c2C3=O)CC1` [Compound A8-13, 8-[2-(4-Ethyl-piperazin-1-yl)-ethoxy]-6,6-dimethyl-11-oxo-6,11-dihydro-5H-benzo[b]carbazole-3-carbonitrile], 22.6 nM.
As for `C=C(C)c1cc2c(cc1N1CCN(C3COC3)CC1)C(C)(C)c1[nH]c3cc(C#N)ccc3c1C2=O` [Compound F5-32, 9-Isopropenyl-6,6-dimethyl-8-(4-oxetan-3-yl-piperazin-1-yl)-11-oxo-6,11-dihydro-5H-benzo[b]carbazole-3-carbonitrile], the figure is 24 nM; as for `CC1(COc2ccc3c(c2)C(C)(C)c2[nH]c4cc(C#N)ccc4c2C3=O)COC1` [Compound A7-10, 6,6-Dimethyl-8-(3-methyloxetan-3-ylmethoxy)-11-oxo-6,11-dihydro-5H-benzo[b]carbazole-3-carbonitrile], 303 nM.
Then `CCc1cc2c(cc1N1CCC(NCC3CCCCC3)CC1)C(C)(C)c1[nH]c3cc(C#N)ccc3c1C2=O` [PR11-19, 8-[4-(Cyclohexylmethyl-amino)-piperidine-1-yl]-9-ethyl-6,6-dimethyl-11-oxo-6,11-dihydro-5H-benzo[b]carbazole-3-carbonitrile], with 34.6 nM.
Consider `CN(CCO)C(=O)c1ccc2c(c1)C(C)(C)c1[nH]c3cc(C#N)ccc3c1C2=O` [Compound B3-26, 3-Cyano-6,6-dimethyl-11-oxo-6,11-dihydro-5H-benzo[b]carbazol-8-carboxylic acid (2-hydroxy-ethyl)-methyl-amide], for which the IC50 is 1360 nM.
Regarding `CC1(C)c2cc(N3CCC(N4CCCCC4)CC3)ncc2C(=O)c2c1[nH]c1cc(C#N)ccc21` [AZ7-10, 3-[1,4′]Bipiperidinyl-1′-yl-5,5-dimethyl-11-oxo-6,11-dihydro-5H-pyrido[4,3-b]carbazole-8-carbonitrile], the IC50 was determined as 5.77 nM.
